# Measurements published in PubChem BioAssay AID686978 (National Center for Advancing Translational Sciences (NCATS), 2013).
# “And” between values parts separate entries of the source, which are not always exact repeats. Identical values can stand only once. Hit rate of the full screen: of about 420,000 compounds, about 64,000 (15%) were called active. Inconclusive means that the source gave no clear call. Such entries were picked first, then a sample of the others. The call rests on the fitted dose curve; in most records, active means well fitted inhibition curve with a large enough effect; inconclusive means small, poorly fitted or top-dose-only effect; inactive means flat fitted curve, though single readings scatter. Potencies of inconclusive entries are left out as doubtful fits.
# Assay: qHTS for Inhibitors of human tyrosyl-DNA phosphodiesterase 1 (TDP1): qHTS in cells in absence of CPT; further: nearly all actives have a fitted effect of over 55% in size
# Settings: DT40 Tdp1-/- hTDP1 cells, no CPT, ATP luminescence, 48 h; activity change, negative = growth inhibition: at 46.2 µM (top of the series) unless noted
# Summary of the method: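 Luminescent ATP content (CellTiter-Glo) served as the growth readout. Knockout chicken DT40 cells expressing human TDP1 were exposed to compounds without camptothecin for a minimum 48 hr at 37 °C.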
# On the % scale 0 is the no-effect control and ±100 the full control effect; potency means the concentration at half of the fitted maximal effect; tags describe the fitted curve by direction and shape.
Compound,Potency,"activity change, negative = growth inhibition"
Cc1c(NC(=O)c2ccc(S(=O)(=O)N3CCOCC3)cc2)cccc1[N+](=O)[O-],inactive,–
Cc1cc(CNC(=O)Cn2cc([N+](=O)[O-])cn2)c2ccccc2n1,"inconclusive [inhibitor, single point]",–
O=C(NC1CCSC1=O)c1ccccc1 (stereo not given),inactive,–
Cc1ccccc1-c1cc2nc(NCCN3CCCC3)n(C)c(=O)c2s1,"inconclusive [inhibitor, single point]",–
CCCCN(CC)CCCNC(=O)c1cc2c(=O)[nH]c3ccccc3c2s1,active: 23.1 µM,–
Cc1cc(C)cc(NC(=O)CN2C(=O)c3ccccc3Sc3ncccc32)c1,"inconclusive [inhibitor, single point]",–
CC(C)(CO)NC(=O)c1cnn(-c2nccc(-c3ccc4c(c3)OCO4)n2)c1C1CC1,"inconclusive [inhibitor, partial curve]",–
O=C1C=Cc2ccccc2/C1=C/c1[nH]c(=O)[nH]c1O,–,inconclusive: -32.9% [inhibitor]
CN1C(C(=O)Nc2ccc(F)cc2F)=CC(c2ccc3c(c2)OCO3)=NS1(=O)=O,"inconclusive [inhibitor, single point]",–
Cc1nc2ccccc2nc(C)c1=NOCc1cccc(Cl)c1,"inconclusive [inhibitor, single point]",–
C=CCC(C(=O)Oc1c(C(C)(C)C)cc(C)cc1C(C)(C)C)c1ccccc1 (stereo not given),"inconclusive [inhibitor, single point]",–
COCCn1c(=O)c(-c2cc(F)cc(F)c2)nc2cnc(Nc3cccc(OC)c3)nc21,inactive,–
CCN(CC)c1ccc(NC(=O)c2ccc(Br)o2)c(C)c1,"inconclusive [inhibitor, single point]",–
CCc1cccc2c(C(=O)COC(=O)c3nn(C)c(=O)c4ccccc34)c[nH]c12,"inconclusive [inhibitor, single point]",–
Cc1ccc(CNC(=O)CCc2nnc3ccc(N4CCC5(CC4)OCCO5)nn23)cc1,inactive,–
Cc1ccc2nc(-c3ccccc3)c(Cc3ccccc3C(F)(F)F)n2c1,"inconclusive [inhibitor, single point]",–
O=C(CCC(=O)N1CCN(c2cccc(Cl)c2)CC1)c1cccs1,active: 18.4 µM,–
Nc1ccc(-n2nncc2-c2ccc(Cl)cc2)cc1,inactive,–
Cc1c(-c2nc(-c3ccncc3)no2)cccc1[N+](=O)[O-],"inconclusive [inhibitor, single point]",–
O=C(Cc1ccc([N+](=O)[O-])cc1)N1N=C(C2CC2)CC1(O)C(F)(F)F (stereo not given),"inconclusive [inhibitor, single point]",–
O=S(=O)(NCC(c1cccnc1)N1CCN(c2ccc(F)cc2)CC1)c1cccs1 (stereo not given),"inconclusive [inhibitor, single point]",–
O=C1CCCN1CC(CN1CCOCC1)Sc1nc2ccccc2c(=O)n1-c1ccccc1 (stereo not given),inactive,–
CCn1c(COc2cccc(C)c2)nnc1SCC(=O)N1CCCC1,inactive,–
Cc1ccc2scc(CN3CCCC3)c2c1,inactive,–

Compound,Potency,"activity change, negative = growth inhibition"
Cc1cc(NC(=O)C2=C(O)c3ccccc3S(=O)(=O)N2C)no1,"inconclusive [inhibitor, partial curve]",–
COc1cc(-c2noc(-c3ccco3)n2)cc(OC)c1OC,"inconclusive [inhibitor, single point]",–
Cc1ccc(CN(Cc2ccco2)C(=O)COc2ccc(C(C)C)cc2)cc1,"inconclusive [inhibitor, single point]",–
CC1=C(C(=O)OCC(C)C)C(c2cc3c(cc2Br)OCO3)NC(=O)N1C (stereo not given),"inconclusive [inhibitor, single point]",–
C=CCn1c(NCc2ccccc2OC)nc2ccccc21,"inconclusive [inhibitor, single point]",–
CCCC(C)NC(=O)Cn1c(=O)c2c(ncn2CCC(C)C)n(Cc2ccccc2)c1=O (stereo not given),"inconclusive [inhibitor, single point]",–
CCCCCC(=O)Nc1cccc(C2=NOC3(C2)C[C@H](C(N)=O)N(C(=O)COc2ccc(Cl)cc2)C3)c1 (stereo not given in full),"inconclusive [inhibitor, single point]",–
Fc1cccc(CSc2nc3ccncc3[nH]2)c1,"inconclusive [inhibitor, single point]",–
CCC(=O)N1CCc2cc(S(=O)(=O)CCC(=O)Nc3nc(C)cs3)ccc21,"inconclusive [inhibitor, single point]",–
NC(=O)c1cc(S(=O)(=O)NC2CCCCC2)co1,inactive,–
Cc1ccc(-c2cc(C(F)(F)F)c(C#N)c(SCC(=O)Nc3ccccc3)n2)cc1,"inconclusive [inhibitor, full curve]",–
Cc1c(C)c2ccc(OCC(=O)Nc3cccnc3)cc2oc1=O,"inconclusive [inhibitor, single point]",–
CCC(C)[C@H]1COCCS(=O)(=O)N1Cc1ccc(C)cc1 (stereo not given in full),"inconclusive [inhibitor, single point]",–
CC1CCN(C(=O)c2ccc(-c3ccccc3Cl)o2)CC1,"inconclusive [inhibitor, single point]",–
COc1ccc(OC)c(CCNC(=O)c2csc3c2CCCCC3)c1,"inconclusive [inhibitor, single point]",–
COc1cc(OC)nc(Nc2nc(C(N)Cc3ccc(C(F)(F)F)cc3)cs2)n1 (stereo not given),"inconclusive [inhibitor, single point]",–
O=C(NCc1ccco1)C(=O)c1cn(CC(=O)N2CCCCC2)c2ccccc12,inactive,–
CCOC(=O)C1CCN(C(=O)c2ccc3c(=O)n4nc(Nc5cc(C)ccc5C)sc4nc3c2)CC1,active: 10.3 µM and active: 18.4 µM,–
CC(=O)Nc1ccc(C(=O)Cn2c3[n+](c4c(F)c(F)ccc42)CCCCC3)cc1,inactive,–
CCOC(=O)C(C)NC(=O)c1c(C)oc2ncn(CC(C)C)c(=O)c12 (stereo not given),active: 23.1 µM,–
Cc1ccc(S(=O)(=O)N2CCOCC2)cc1NC(=O)COC(=O)c1ccc2c(c1)OCO2,inactive,–
COc1ccc2nc(C)cc(Nc3ccccc3O)c2c1,"inconclusive [inhibitor, single point]",–
COC(=O)c1ccccc1NC(=O)CSc1nnc(-c2cccnc2)o1,inactive,–
CCOc1cccc(C2c3c(-c4cc(C)ccc4O)n[nH]c3C(=O)N2Cc2ccco2)c1 (stereo not given),"inconclusive [inhibitor, single point]",–

Compound,Potency,"activity change, negative = growth inhibition"
COc1ccccc1CNc1nc(NCc2cnc(C)cn2)c2sccc2n1,"inconclusive [inhibitor, single point]",–
Cc1ccc2sc(N3CCN(C(=O)C4=COCCO4)CC3)nc2c1C,"inconclusive [inhibitor, single point]",–
CN(C)c1ccc(/C=C2\C=Cc3ccccc32)cc1Cl,–,inconclusive: -31% [inhibitor]
COc1ccc(NC(=O)CCCc2ccc(OC)c(C)c2)cc1,"inconclusive [inhibitor, single point]",–
CCC(=O)C1=C(c2cccc(OC)c2)N(C(=O)CC)n2c(nnc2C2CCCCC2)S1,active: 11.6 µM,–
O=C(CN1C(=O)/C(=C/c2ccccc2)SC1=S)N1CCN(CCc2ccccn2)CC1,active: 11.6 µM,–
Cc1cc(S(=O)(=O)NCCC2=CCCCC2)ccc1Br,"inconclusive [inhibitor, single point]",–
Cc1cc(C(C)(C)CC(C)(C)C)ccc1OCCOCC[N+](C)(C)Cc1ccccc1,active: 820 nM and active: 4.11 µM,–
O=C1NC2(CCCc3ccccc32)C(=O)N1CCOc1ccc(Br)cc1 (stereo not given),"inconclusive [inhibitor, single point]",–
O=C1/C(=C/c2ccc([N+](=O)[O-])cc2)C=C(c2ccccc2)N1c1ccccc1,–,inconclusive: -33.1% [inhibitor]
CC(C)(C)NC(=O)C(c1ccco1)N(C(=O)Cn1nnc(-c2ccc(F)cc2)n1)c1ccccc1F (stereo not given),active: 16.4 µM,–
O=C(Nc1ccc(S(=O)(=O)N2CCCCC2)cc1)c1ccc(F)cc1,"inconclusive [inhibitor, partial curve]",–
COc1cc(/C=N/NC(=O)c2cc(C)n(-c3ccc(F)cc3)c2C)cc(OC)c1O,"inconclusive [inhibitor, partial curve]",–
Cc1cccc(Cc2c(C)nc3nc(SCC(=O)O)nn3c2C)c1,inactive,–
CCOC(=O)c1cc(-c2ccccc2)n(CC(=O)Nc2ccc(OC)c(OC)c2)c1C,"inconclusive [inhibitor, single point]",–
COc1ccc(C2CCCN2CC(O)COc2ccccc2C(C)C)cc1 (stereo not given),active: 13 µM,–
COc1ccc(NC(=O)C(c2ccccc2)n2c(=O)c(-c3ccco3)nc3ccccc32)cc1 (stereo not given),active: 9.2 µM,–
CC(C)(C)c1ccc(C(=O)NNc2ccc(F)cc2F)cc1,inactive,–
COc1ccc(CNC(=O)Cn2ncn3c(cc4ccccc43)c2=O)cc1,"inconclusive [inhibitor, partial curve]",–
O=C(COc1ccc(Cl)cc1Cl)NNC(=S)NC(=O)c1ccco1,"inconclusive [inhibitor, single point]",–
CCCCc1ccc(Nc2nc(CCC)cc(=O)[nH]2)cc1,active: 16.4 µM,–
Cc1ccc(NC(=O)Cn2c(=O)oc3cc(S(=O)(=O)NCc4ccccc4)ccc32)cc1,"inconclusive [inhibitor, partial curve]",–
